Results as given in PubChem BioAssay AID1745845 (National Center for Advancing Translational Sciences (NCATS), 2022).
Screen size: about 360,000 compounds; about 2,600 (0.72%) were called active. This list was built around the results that the source calls inconclusive (neither active nor inactive); the mix of calls is not that of the screen. The call rests on the fitted dose curve; in most records, active means well fitted inhibition curve with a large enough effect; inconclusive means small, poorly fitted or top-dose-only effect; inactive means no such curve, though single readings can be large or run the other way. Potencies beside an inconclusive call are fits to weak or partial responses and may not hold up.

Experiment: Primary qHTS for Inhibitors of ATXN expression; further: nearly all actives have a fitted effect of over 55% in size
Conditions: HEK-293 ATXN2-luciferase reporter, luminescence, 24 h; activity change, negative = inhibition: at 57 µM (top of the series)
Procedure, shortened: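 qHTS (up to 57 uM final) was run with 24 h compound exposure of reporter cells at 37 °C. Each well was multiplexed: SteadyGlo luminescence measured ATXN2-luciferase expression after a fluorogenic Gly-Phe-AFC viability readout (25 uM final).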
On the % scale 0 is the no-effect control and ±100 the full control effect; potency means the concentration at half of the fitted maximal effect; tags describe the fitted curve by direction and shape.

Activity change, negative = inhibition, inactive:
O=C1CC(c2cccc([N+](=O)[O-])c2)c2ccc3ccccc3c2N1 (configuration not stated) -20.5%
COc1ccc(-c2c(NC(=O)c3ccco3)oc3ccccc3c2=O)cc1 5.07%
CCCNC(=O)c1cc(C2CCCCN2S(=O)(=O)c2ccc(OC)cc2)on1 (configuration not stated) -10.8%
O=C(O)c1cc(Br)ccc1NS(=O)(=O)c1cccc2nsnc12 -11.4%
Cc1cccc(N/C=C/c2onc(C)c2[N+](=O)[O-])c1 32.8%
O=C(CSc1nc2ccccc2s1)NNC(=S)Nc1ccccc1 6.51%
CN1CC(=O)N(CC(=O)Nc2ccc(OCc3ccccc3)cc2)C1=O 37%
C[C@@H]1CN([C@H](C)CO)S(=O)(=O)c2ccc(Br)cc2O[C@@H]1CN(C)Cc1ccc(C(=O)O)cc1 5.06%
Cc1nn(C)c(C(=O)NCc2ccc(Cl)cc2)c1Cl -21.7%
C=CCNC(=S)Nc1ccc(Cl)cc1F 1.21%
COCCCNC(=O)C(C#N)c1nc2ccccc2nc1N1CCN(Cc2ccccc2)CC1 (configuration not stated) -14.7%
O=C(N/N=C/C(Br)=C/c1ccccc1)NC1CCCCC1 40.1%
CCc1ccc(CNc2ncnc3onc(-c4ccc(Cl)cc4)c23)cc1 4.51%
Cc1ccc(CN2CCN(c3ncccn3)CC2)o1 -1.31%
COc1cc(NC(=O)c2cccc(Br)c2)nc(OC)n1 -1.75%
CCNC(=S)N(CCc1ccccc1C)Cc1cc2cc(OC)c(OC)cc2[nH]c1=O -17.4%
COC(=O)/C=C1/SC(=Nc2ccc(Cl)c(Cl)c2)NC1=O -9.62%
Cc1ccc([C@H]2N[C@]3(CCCN(Cc4ccc(Br)cc4)C3=O)[C@H]3C(=O)N(Cc4ccccc4)C(=O)[C@@H]23)cc1 -12.5%
COc1ccc(S(=O)(=O)N2CCN(Cc3ccc4c(c3)OCO4)CC2)cc1OC -3.07%
CC(=O)N1CCOc2ccc(S(=O)(=O)N3CCC(C(=O)Nc4ccc(C)cc4)CC3)cc21 -29.6%

Potency, active:
CN(C)c1nc(-c2ccccn2)nnc1-c1ccccc1 8.91 µM
Cc1cc(=O)[nH]c(N=N/C(=N/Nc2ccccc2C)c2ccccc2)n1 2.51 µM
Cc1cnc(NC(=O)c2ccc3c(c2)OCCO3)s1 2.24 µM
O=c1c2c(nc3c(-c4ccc(Cl)cc4)c[nH]n13)CCC2 12.6 µM
Cc1nc(SCCC(=O)O)c2cc(-c3ccccc3)sc2n1 2 µM
COc1cccc(/C=N/NC(=O)c2[nH]c(C)c(C(=O)N/N=C/c3cccc(OC)c3O)c2C)c1O 14.1 µM

Potency, inconclusive:
Cc1nc(N2CCN(S(=O)(=O)c3ccccc3C#N)CC2)c2c(-c3ccccc3)csc2n1 26.7 µM [inhibitor, single point]
Cc1nc(C)c(C(=O)Nc2ncc([N+](=O)[O-])s2)o1 11.9 µM [inhibitor, partial curve, poor fit]
Cc1ccc(C(=O)Cn2c(C(=O)/C=C/c3ccccc3)nc3ccccc32)cc1 39.8 µM [inhibitor, single point]
Cc1ccc(S(=O)(=O)c2c(C)nn(C(C)(C)C)c2OC(=O)C2CCCC2)cc1 39.8 µM [inhibitor, single point]
CCS(=O)(=O)c1ncc(Cl)c(C(=O)Nc2ccccc2OC)n1 39.8 µM [inhibitor, single point]
COc1ccccc1-c1sc2cc3c(cc2c1-c1ccc(OCCN2CCCCC2)cc1)OCO3 39.8 µM [inhibitor, single point]
COc1cccc(/C=N/Nc2ncnc(Cl)c2N)c1O 2.82 µM [inhibitor, partial curve, poor fit]
COc1ccc(-c2nnc(SCC(=O)NCc3cccs3)n2C(C)C)cc1 12.6 µM [inhibitor, partial curve, poor fit]
COc1ccc(-n2cc(-c3ccccc3)c3c(NCCCN4CCOCC4)ncnc32)cc1 2.38 µM [inhibitor, partial curve, poor fit]
COc1ccc(NS(=O)(=O)c2ccc(NC(=O)c3ccc(CN4CCOCC4)cc3)cc2)cc1 17.8 µM [inhibitor, partial curve, poor fit]
Cc1ccc(S(=O)(=O)Nc2ccc3c(c2)CCCN3C(=O)c2cccs2)cc1C 39.8 µM [inhibitor, single point]
Cc1cc(C)c(C#N)c(N2CCN(CCOc3ccc(Cl)cc3)CC2)n1 35.5 µM [inhibitor, single point]
c1ccc(-c2cc(-c3nnc4n3N=C(c3ccc5ccccc5c3)CS4)[nH]n2)cc1 39.8 µM [inhibitor, single point]
CCCCCCc1nc2ccccc2c(=O)n1NC(=O)c1c(O)c2c(n(CC(C)C)c1=O)CCCC2 20 µM [inhibitor, partial curve, poor fit]
CC1=C/C(=C(\c2cc(C)c(O)c(Br)c2)c2ccccc2S(=O)(=O)O)C=C(Br)C1=O 3.98 µM [inhibitor, partial curve, poor fit]
CCC(NC(=O)CCc1c(C)c2cc3c4c(oc3cc2oc1=O)CCCC4)C(=O)O (configuration not stated) 2 µM [inhibitor, partial curve, poor fit]
COc1cc2nc(Nc3ccc(C)c(C)c3)nc(N)c2cc1OC 35.5 µM [inhibitor, single point]
CCOC(=O)c1ccc(NC(=O)Cn2cc(C(=O)c3cccs3)c3ccccc32)cc1 35.5 µM [inhibitor, single point]
COc1ccc(C2CC(c3ccccc3Br)=NN2c2ccc(S(N)(=O)=O)cc2)cc1 (configuration not stated) 25.1 µM [inhibitor, single point]
COc1ccc(S(=O)(=O)Cc2ccc(C(=O)N3CCN(c4cc(Cl)ccc4C)CC3)o2)cc1 39.8 µM [inhibitor, single point]
O=C1c2cnc3nc(SCc4ccc(Cl)cc4)nn3c2CC2c3ccccc3CCN12 (configuration not stated) 15.8 µM [inhibitor, partial curve, poor fit]
CCOC(=O)N1CCN(CCC(=O)Nc2ccc(C)cc2)CC1 31.6 µM [inhibitor, partial curve, poor fit]
O=C(c1ccccc1NS(=O)(=O)c1ccc([N+](=O)[O-])cc1[N+](=O)[O-])N1O[C@@H]2C=C[C@H]1C2 25.1 µM [inhibitor, single point]
CCCCOC(=O)c1c(C)oc2ccc(NS(=O)(=O)c3ccc(F)cc3C)cc12 28.2 µM [inhibitor, single point]
COc1ccc(-n2nnnc2S(=O)(=O)Cc2ccc(C(=O)O)cc2)cc1 39.8 µM [inhibitor, single point]
COC(=O)c1c(C)nn(-c2ccccc2)c1-n1cccc1 0.141 µM [inhibitor, full curve, poor fit]
CC1=C/C(=C(/c2cc(C)c(O)c(Br)c2)c2ccccc2S(=O)(=O)O)C=C(Br)C1=O 10 µM [inhibitor, partial curve]
Cc1ccc(NC(=O)C2CCN(C(=O)c3cnn(-c4ccccc4)c3-n3cccc3)CC2)cc1C 22.4 µM [inhibitor, single point]
C/C(=N\N1C(C)CCCC1C)c1ccccc1O (configuration not stated) 11.2 µM [inhibitor, partial curve, poor fit]
Cc1ccnc(NC(=O)C2CC(=O)N(Cc3ccccc3)C2)c1 (configuration not stated) 39.8 µM [inhibitor, single point]
COc1ccc(CN2C(=O)[C@H]3Cc4c([nH]c5ccccc45)C(C)(C)N3C2=O)cc1 39.8 µM [inhibitor, single point]
COc1ccc(C(=O)c2c(C(F)(F)F)oc3c2C(=O)c2ccccc2C3=O)cc1OC 31.6 µM [inhibitor, single point]
CC1CCCN(C(C(=O)Nc2ccc(C(C)C)cc2)c2ccc3c(c2)OCO3)C1 (configuration not stated) 39.8 µM [inhibitor, partial curve, poor fit]
CN(C)CCNc1cc(-c2ccncc2)nc2ccccc12 35.5 µM [inhibitor, single point]
CCOC(=O)c1c(NC(=O)c2c(Br)cnn2C)c(C#N)nn1-c1ccccc1 12.6 µM [inhibitor, partial curve]
Cc1ccccc1-c1nnc(C2CCN(S(=O)(=O)c3ccc(Cl)cc3)CC2)o1 11.2 µM [inhibitor, partial curve]
O=C(COc1ccc(S(=O)(=O)NC2CCCCC2)cc1)Nc1ccc2c(c1)OCCO2 20 µM [inhibitor, partial curve, poor fit]
CCCN(CCC)S(=O)(=O)c1ccc(Cl)c([N+](=O)[O-])c1 31.6 µM [inhibitor, single point]
COc1ccc(-c2c(C)cc3oc(=O)cc(-c4ccccc4)c3c2C)cc1C=O 35.5 µM [inhibitor, single point]
CCOC(=O)C1=C(c2ccccc2)N=c2s/c(=C\c3cccc(O)c3)c(=O)n2C1c1cccs1 (configuration not stated) 39.8 µM [inhibitor, single point]
O=C(CSc1nc(-c2ccccc2)[nH]c1-c1ccccc1)Nc1ccc2c(c1)OCCO2 39.8 µM [inhibitor, single point]
